Some of the results follow. Repeats are few or missing, and single values can be far off.
Legend:
Test in all cases: cell count relative to DMSO control; melanoma cells; higher = more viable cells
Details in all cases: library dose: low library concentration; 72 h
MZ2-MEL = tested on: MZ2-MEL
MeWo = tested on: MeWo
RPMI7951 = tested on: RPMI7951
RVH-421 = tested on: RVH-421
SkMel28 = tested on: SkMel28
SkMel2 = tested on: SkMel2
SkMel30 = tested on: SkMel30
UACC62 = tested on: UACC62
SkMel5 = tested on: SkMel5
UACC257 = tested on: UACC257
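Note: cell number obtained by counting DAPI-stained nuclei in high-throughput microscope images with image analysis software, screen run in 1,536-well plates.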

SMILES | cell count (MZ2-MEL) | cell count (MeWo) | cell count (RPMI7951) | cell count (RVH-421) | cell count (SkMel28) | cell count (SkMel2) | cell count (SkMel30) | cell count (UACC62) | cell count (SkMel5) | cell count (UACC257)
C[C@]1(O)C[C@@H](c2nc(-c3ccc4ccc(-c5ccccc5)nc4c3)c3c(N)nccn32)C1 + N.N.[Cl][Pt][Cl] [cisplatin] (first compound 0.4 µM, partner dose 1.6 µM) | 93.7% | 98.5% | 88% | 97.6% | 95.9% | 88% | 87% | 89% | – | –
CN(c1ncccc1CNc1nc(Nc2ccc3c(c2)CC(=O)N3)ncc1C(F)(F)F)S(C)(=O)=O + O=C(Oc1ccc([N+](=O)[O-])cc1)N1CCC(C(O)(c2ccc3c(c2)OCO3)c2ccc3c(c2)OCO3)CC1 [JZL184] (first compound 0.08 µM, partner dose 1 µM) | 86.7% | 95.6% | 63.8% | 108% | 73.4% | 83.6% | 108% | 77.4% | 70.8% | 66.7%
O=C(/C=C/c1cccnc1)NCCCCC1CCN(C(=O)c2ccccc2)CC1 + N.N.[Cl][Pt][Cl] [cisplatin] (first compound 0.01 µM, partner dose 1.6 µM) | 48.6% | 102% | 104% | 29.7% | 105% | 18.6% | 104% | 92.7% | – | –
C=CCNC1=C2C[C@@H](C)C[C@H](OC)[C@H](O)[C@@H](C)/C=C(\C)[C@H](OC(N)=O)[C@@H](OC)/C=C\C=C(/C)C(=O)NC(=CC1=O)C2=O [Tanespimycin] + O=C(Oc1ccc([N+](=O)[O-])cc1)N1CCC(C(O)(c2ccc3c(c2)OCO3)c2ccc3c(c2)OCO3)CC1 [JZL184] (first compound 0.002 µM, partner dose 1 µM) | 102% | 96.9% | 96.6% | 101% | 91.5% | 96.3% | 106% | 88.8% | 93.8% | 117%
Cn1sc(=O)n(Cc2ccccc2)c1=O + O=C(Oc1ccc([N+](=O)[O-])cc1)N1CCC(C(O)(c2ccc3c(c2)OCO3)c2ccc3c(c2)OCO3)CC1 [JZL184] (first compound 0.4 µM, partner dose 1 µM) | 99.8% | 89% | 97.5% | 108% | 90.3% | 92.8% | 97.1% | 94.5% | 99.5% | 92.3%
NC1(c2ccc(-c3nc4ccn5c(=O)[nH]nc5c4cc3-c3ccccc3)cc2)CCC1 + C[As](C)SC[C@H](NC(=O)CC[C@H](N)C(=O)O)C(=O)NCC(=O)O [Darinaparsin] (first compound 0.4 µM, partner dose 0.4 µM) | 95% | 76.4% | 88% | 95.9% | 77.7% | 87.4% | 83% | 66.3% | – | –
CC[C@]1(O)C[C@H]2CN(CCc3c([nH]c4ccccc34)[C@@](C(=O)OC)(c3cc4c(cc3OC)N(C=O)[C@H]3[C@@](O)(C(=O)OC)[C@H](OC(C)=O)[C@]5(CC)C=CCN6CC[C@]43[C@@H]65)C2)C1 [vincristine] + C/C(O)=C(\C#N)C(=O)Nc1cc(Br)ccc1Br [LFM-A13] (first compound 0.0001 µM, partner dose 2 µM) | 89% | 80.9% | 53.2% | 81.1% | 67.5% | 85.6% | 54.5% | 48.8% | 85.4% | 46%
CS(=O)(=O)c1ccc(C(=O)Nc2ccc(Cl)c(-c3ccccn3)c2)c(Cl)c1 [vismodegib] + N.N.[Cl][Pt][Cl] [cisplatin] (first compound 1 µM, partner dose 1.6 µM) | 101% | 101% | 100% | 94.1% | 84.4% | 98.4% | 95.7% | 118% | – | –
Nc1nc(F)nc2c1ncn2[C@@H]1O[C@H](CO)[C@@H](O)[C@@H]1O [fludarabine] + O=C(Oc1ccc([N+](=O)[O-])cc1)N1CCC(C(O)(c2ccc3c(c2)OCO3)c2ccc3c(c2)OCO3)CC1 [JZL184] (first compound 0.2 µM, partner dose 1 µM) | 103% | 31.5% | 85.7% | 86.2% | 73.2% | 6.97% | 14.6% | 85.6% | 54.6% | 93.9%
Cc1ccc(Nc2nccc(N(C)c3ccc4c(C)n(C)nc4c3)n2)cc1S(N)(=O)=O [Pazopanib] + Cc1cc(SCc2sc(-c3ccc(C(F)(F)F)c(F)c3)nc2C)ccc1OCC(=O)O [GW0742] (first compound 0.4 µM, partner dose 2 µM) | 74.3% | 98.9% | 87.8% | 97.1% | 98.3% | 95.5% | 91.6% | 99.9% | 76% | 97.5%
CCCS(=O)(=O)Nc1ccc(F)c(C(=O)c2c[nH]c3ncc(Cl)cc23)c1F + Cc1cc(SCc2sc(-c3ccc(C(F)(F)F)c(F)c3)nc2C)ccc1OCC(=O)O [GW0742] (first compound 0.08 µM, partner dose 2 µM) | 83.2% | 104% | 93.2% | 80.1% | 75.5% | 93.9% | 96% | 51.9% | 114% | 94.8%
C=C(c1ccc(C(=O)O)cc1)c1cc2c(cc1C)C(C)(C)CCC2(C)C [Bexarotene] + Cc1cc(SCc2sc(-c3ccc(C(F)(F)F)c(F)c3)nc2C)ccc1OCC(=O)O [GW0742] (first compound 2 µM, partner dose 2 µM) | 96.8% | 90.7% | 79.3% | 86.3% | 74.4% | 87.8% | 87.9% | 85.7% | 90.4% | 108%
CC(=O)c1c(C)c2cnc(Nc3ccc(N4CCNCC4)cn3)nc2n(C2CCCC2)c1=O [palbociclib] + C/C(O)=C(\C#N)C(=O)Nc1cc(Br)ccc1Br [LFM-A13] (first compound 0.04 µM, partner dose 2 µM) | 74.3% | 80.5% | 60% | 73.3% | 64.7% | 74.7% | 75.1% | 60.3% | 68.5% | 50.2%
CC(=O)c1c(C)c2cnc(Nc3ccc(N4CCNCC4)cn3)nc2n(C2CCCC2)c1=O [palbociclib] + Cc1cc(SCc2sc(-c3ccc(C(F)(F)F)c(F)c3)nc2C)ccc1OCC(=O)O [GW0742] (first compound 0.04 µM, partner dose 2 µM) | 88.1% | 71% | 77.1% | 118% | 75.2% | 89.1% | 83.9% | 82.6% | 77.9% | 77.8%
COc1cc([C@@H]2c3cc4c(cc3[C@@H](O[C@@H]3O[C@@H]5CO[C@@H](C)O[C@H]5[C@H](O)[C@H]3O)[C@H]3COC(=O)[C@H]23)OCO4)cc(OC)c1O [etoposide] + Cc1cc(SCc2sc(-c3ccc(C(F)(F)F)c(F)c3)nc2C)ccc1OCC(=O)O [GW0742] (first compound 0.02 µM, partner dose 2 µM) | 95.6% | 87% | 114% | 83.9% | 94.1% | 84.6% | 84.5% | 89.2% | 108% | 87.6%
C[C@]1(O)C[C@@H](c2nc(-c3ccc4ccc(-c5ccccc5)nc4c3)c3c(N)nccn32)C1 + Cc1cc(SCc2sc(-c3ccc(C(F)(F)F)c(F)c3)nc2C)ccc1OCC(=O)O [GW0742] (first compound 0.4 µM, partner dose 2 µM) | 103% | 85.4% | 85.4% | 104% | 92.2% | 81.1% | 75.3% | 90.1% | 84% | 68.5%

Source: the supplement of paper PMC4604168 (melanoma cell lines)
